Some of the results follow.

The assay relates to HSkMC (human skeletal muscle cells). The assay can be described thus: cytotoxicity call (relative viability < 0.9). The note with it: 10 µM.
For `C[C@H]1CCCCO[C@@H](CN(C)C(=O)Nc2ccccc2)[C@@H](C)CN([C@@H](C)CO)C(=O)c2cc(NC(=O)Nc3ccccc3)ccc2O1`, the cytotoxicity call was “inactive”.
In the case of `C[C@H]1CN([C@@H](C)CO)S(=O)(=O)c2ccc(-c3ccc(C(=O)N(C)C)cc3)cc2O[C@@H]1CN(C)C(=O)C1CCC1`, the cytotoxicity call was “inactive”.
For the molecule `COc1ccc(NC(=O)N(C)C[C@@H]2OCc3cnnn3CCCC(=O)N([C@@H](C)CO)C[C@@H]2C)c(OC)c1`, the cytotoxicity call is “inactive”.
`COC(=O)C1=CC(CCCO)=C[C@@H](c2cccs2)N(Cc2cccc(OC(F)(F)F)c2)C=C1C(=O)OC`: the cytotoxicity call is “inactive”.
Next, `C[C@H](CO)N1C[C@H](C)[C@H](CN(C)Cc2ccc3c(c2)OCO3)OCCCC[C@H](C)Oc2ccc(NC(=O)Nc3ccc(F)cc3)cc2C1=O`: “inactive”; `O=C(CCCCCC(=O)N/N=C/[C@H](O)[C@@H](O)[C@H](O)[C@H](O)CO[C@H]1O[C@H](CO)[C@H](O)[C@H](O)[C@H]1O)NO`: “inactive”.
Take `Nc1nnc(C(=O)c2ccccc2N)s1`: the cytotoxicity call is “inactive”.
As for `O=C([C@@H]1[C@@H](CO)[C@@H]2Cn3c(cccc3=O)[C@H]1N2S(=O)(=O)c1ccccc1F)N1CCOCC1`, the cytotoxicity call is “inactive”.
For the molecule `CC1=C(C(=O)NCCCN2CCN(c3ccc(F)cc3)CC2)C2(CCN(Cc3ccccc3)CC2)OC1=O`, the cytotoxicity call was “inactive”.
To `C[C@@H]1CN([C@H](C)CO)C(=O)Cc2cc(NC(=O)Nc3ccc(F)cc3)ccc2O[C@H]1CN(C)S(=O)(=O)c1cn(C)cn1` belongs “inactive”.
For `C[C@H](CO)N1C[C@H](C)[C@@H](CN(C)C(=O)Nc2ccc3c(c2)OCO3)OCCCC[C@H](C)Oc2ccc(NS(=O)(=O)c3ccccc3)cc2C1=O`, the cytotoxicity call was “inactive”.
Next, `CC1=NCC[C@@H](C(=O)O)N1`: “inactive”.
Next, `CCCCC/C=C\C/C=C\C/C=C\C/C=C\CCCC(=O)O`: “inactive”; `C[C@H](CO)N1C[C@H](C)[C@@H](CN(C)Cc2ccc(Oc3ccccc3)cc2)Oc2c(NC(=O)NC3CCCCC3)cccc2C1=O`: “inactive”; `C[C@@H]1CN([C@H](C)CO)C(=O)c2cc(NC(=O)c3ccccc3)ccc2O[C@@H](C)CCCCO[C@H]1CN(C)C(=O)Nc1ccccc1`: “inactive”.
For the molecule `Cn1nccc1-c1cccc(CN)c1`, the cytotoxicity call was “inactive”.
Next, `C[C@H]1CN([C@@H](C)CO)C(=O)Cc2cc(NC(=O)Cc3ccccc3)ccc2O[C@H]1CN(C)C(=O)Nc1cccc2ccccc12`: “inactive”; `CS(=O)(=O)[O-].C[n+]1ccccc1C=NO`: “inactive”.
For `O=C(NN1C(=O)CSC1=S)c1ccco1`, the cytotoxicity call is “inactive”.
Next, `COc1ccc(S(=O)(=O)Nc2ccc3c(c2)C(=O)N([C@H](C)CO)C[C@H](C)[C@H](CN(C)C(=O)Nc2ccccc2)OCCCC[C@@H](C)O3)cc1`: “inactive”; `NC(=O)c1nc2c(s1)CCNCC2`: “inactive”; `C[C@@H]1CCCCO[C@H](CN(C)C(=O)Cc2ccccc2)[C@H](C)CN([C@@H](C)CO)C(=O)c2cc(NC(=O)Nc3ccc4c(c3)OCO4)ccc2O1`: “inactive”.
To `CCOC(=O)CCCCCC(=O)Nc1ccc2c(c1)C(=O)N([C@H](C)CO)C[C@@H](C)[C@@H](CN(C)C(=O)CCC(F)(F)F)OCCCC[C@H](C)O2` belongs “inactive”.
For the molecule `C[C@H]1CN([C@@H](C)CO)C(=O)c2cccc(NC(=O)CCCCCC(=O)Nc3ccccc3N)c2O[C@H]1CN(C)C(=O)Nc1ccccc1`, the cytotoxicity call was “inactive”.
Consider `CC(C)NC(=O)Nc1ccc2c(c1)C(=O)N([C@@H](C)CO)C[C@H](C)[C@H](CN(C)S(=O)(=O)c1ccc(Cl)cc1)O2`, for which the cytotoxicity call is “inactive”.
Turning to `O=C(Nc1cccc2cccnc12)[C@H]1[C@@H](c2ccc(C(F)(F)F)cc2)CC(=O)N1C(=O)OCc1ccccc1`, the cytotoxicity call was “inactive”.
Regarding `CS(=O)(=O)NCc1cnc2n1CCN(C(=O)[C@H]1CCOC1)CC2`, the cytotoxicity call is “inactive”.
To `O=C1CN(S(=O)(=O)Cc2ccccc2)C[C@@H]2[C@H](c3ccc(C#Cc4cccc(F)c4)cc3)[C@H](CO)N12` belongs “inactive”; to `N[C@@H](CC(=O)O)c1cccc(O)c1`, “inactive”; to `COCC(=O)N1C[C@@H](C)[C@@H](OC)CN(C)C(=O)c2ccc(NC(=O)c3ccc(F)cc3)cc2OC[C@@H]1C`, “inactive”.
Next, `C[C@@H]1CN([C@@H](C)CO)C(=O)CCCn2cc(nn2)CO[C@@H]1CN(C)C(=O)Nc1cccc(C(F)(F)F)c1`: “inactive”; `C=CCN(C(=O)[C@H]1N(CCOCCO)C(=O)[C@H]2[C@H](C(=O)O)[C@@H]3C=C[C@@]21O3)c1ccc(OC)cc1`: “inactive”; `COc1cccc(NC(=O)N[C@@H]2C=C[C@H](CC(=O)N3CCOCC3)O[C@@H]2CO)c1`: “inactive”.

(Values after the antibiotic and cytotoxicity screens of Wong et al. (2023).)
